Test [1] deals with HIV-1 B CC1/85 (V370A). To be noted: Human immunodeficiency virus 1, BCC1, read-out: HIV-1 B CC1/85 (V370A) EC50 (nM). The procedure: (§1) This example was performed as follows. Crude human primary blood mononuclear cells (PBMCs) were collected from healthy donors via leukapheresis and determined to be negative for HIV exposure, among a variety of additional infectious diseases. PBMCs were isolated via Ficoll-Hypaque density gradient separation followed by aspiration of the banded leukocytes from the gradient. Purified PBMCs from 10 individual donors were combined and cryopreserved in liquid nitrogen as a PBMC pool. Various PBMC pools were utilized.
(§2) Various HIV-1 isolates were obtained from different sources. A stock of the virus was generated in a pool of CD4+ PBMCs and frozen. Viral replication for each virus stock was measured on PHA-blasted PBMC pools to determine the appropriate virus input for anti-viral assays. HIV gag sequences were determined for each isolate by the Sanger di-deoxy sequencing method.
(§3) Cryo-preserved PBMC pools were thawed and stimulated with 2 μg/mL PHA in media (RPMI1640, 20% FBS, 10% T cell growth factor, antibiotics) for 3 days. Blasts were then washed, counted, and cultured in media at 2×10^6 cells/mL in media with 10 U/mL recombinant IL-2 for an additional 24 hours. Stimulated PBMCs were counted for trypan blue exclusion viability and seeded in 96-well round bottom plates at a final density of 1×10^6 cells/well. A volume of the drug dose titration was added to the cells followed by a predetermined amount of virus.
(§4) In order to determine anti-viral potency, HIV reverse transcriptase activity in cell culture supernatants was measured as a measure of viral replication in the presence or absence of compound. At the end of the incubation period, fifty (50) μL of PBMC culture supernatants were transferred to a new 96-well plate; 10 μL of RT extraction buffer was added followed by the addition of 40 μL of RT assay buffer. The RT plates were thoroughly mixed and placed in a humidified incubator at 37° C., 5% CO2 for 2 h. DE-81 96-well plates were placed on a vacuum manifold and 100 uL of the RT reaction transferred to the ion-exchange chromatography plates. After applying the solution phase of the RT reaction to the DE-81 plate, the plate was then washed once with prepared 5% Na2HPO4, followed by a wash of dH20. Plates were then allowed to dry overnight at room temperature. The plates were sealed and 50 μL scintillation fluid added prior to reading on a Topcount (Packard) luminometer at 10 s/well.

The subject of test [2] is HIV-1 B ASJM108 (V370A+). To be noted: Human immunodeficiency virus 1, read-out: HIV-1 B ASJM108 (V370A+) EC50 (nM). The protocol:
as §1, §2, §3, §4

Test [3] relates to HIV-1 C 97ZA009 (V370A+). To be noted: Human immunodeficiency virus 1, read-out: HIV-1 C 97ZA009 (V370A+) EC50 (nM).

Each structure is given as a SMILES string.

Regarding `C=C(C)[C@@H]1CC[C@]2(C(=O)O)CC[C@]3(C)[C@H](CC[C@@H]4[C@@]5(C)CC[C@H](OC(=O)CC(C)(C)C(=O)O)C(C)(C)[C@@H]5CC[C@]43C)[C@@H]12` [Bevirimat], the values for the EC50 in test [1], in test [2] and in test [3] were > 10000 nM, > 10000 nM and 13400 nM, respectively.

As for `CC(C)C1=C2[C@H]3CC[C@@H]4[C@@]5(C)CC[C@H](OC(=O)CC(C)(C)C(=O)O)C(C)(C)[C@@H]5CC[C@@]4(C)[C@]3(C)CC[C@@]2([C@@H](O)CN(CCN(C)C)Cc2ccc(Cl)cc2)CC1=O` [Compound 51, 4-(((3aR,5aR,5bR,7aR,9S,11aR,11bR,13aS)-3a-((R)-2-((4-chlorobenzyl)(2-(dimethylamino)ethyl)amino)-1-hydroxyethyl)-1-isopropyl-5a,5b,8,8,11a-pentamethyl-2-oxo-3,3a,4,5,5a,5b,6,7,7a,8,9,10,11,11a,11b,12,13,13a-octadecahydro-2H-cyclopenta[a]chrysen-9-yl)oxy)-2,2-dimethyl-4-oxobutanoic acid], the EC50 in test [1] is 1.2 nM; in test [2], 1 nM.

The values above are taken from patent US10064873B2, “Compounds and compositions for treating HIV with derivatives of Betulin” (GlaxoSmithKline LLC, priority 2011, dated 2018).
